Experimental data: PubChem BioAssay AID1346428 (National Center for Advancing Translational Sciences (NCATS), 2018)
Among all 48,000 compounds or so, about 1,200 (2.5%) were called active. Not shown: some 2% with an inconclusive outcome.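 How the source made its calls: active means activation of at least 60% and not above a set upper limit (about 1 call in 100 departs from these limits); inconclusive means activation of 40% to 60%, or above that upper limit; inactive means activation under 40%.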 This is one part of the list.

Molecular target: Probable G-protein coupled receptor 32 (Homo sapiens) (UniProt O75388)
Sequence of UniProt O75388 (O75388 whole entry, looked up): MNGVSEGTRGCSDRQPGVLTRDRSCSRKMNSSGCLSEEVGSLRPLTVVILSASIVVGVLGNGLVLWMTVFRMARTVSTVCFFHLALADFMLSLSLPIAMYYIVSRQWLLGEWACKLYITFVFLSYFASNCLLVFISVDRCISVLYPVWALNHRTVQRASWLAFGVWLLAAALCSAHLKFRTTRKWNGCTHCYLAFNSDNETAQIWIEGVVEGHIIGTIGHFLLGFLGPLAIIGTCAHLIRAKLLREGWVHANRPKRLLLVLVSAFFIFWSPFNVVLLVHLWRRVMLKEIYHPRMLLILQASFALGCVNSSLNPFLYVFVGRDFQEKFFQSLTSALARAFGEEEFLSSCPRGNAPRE
Assay: qHTS for Agonists of Human Resolvin D1 Receptor DRV1; further: 0% is about no effect
Details: CHO-K1 GPR32 beta-arrestin PathHunter luminescence, 90 min; at 76.9 µM; stronger effect = higher value; zero percent set by DMSO-only wells
How it was run: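 Agonism was scored by beta-Gal fragment complementation (chemiluminescent read, 1 h detection at ambient temperature) reporting beta-arrestin binding to GPR32 in engineered CHO-K1 cells. Compound treatment lasted 90 min at 37 C, normalized to a DMSO basal control.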

activation, inactive:
CCc1ccc(CNC(=O)c2cnc3sc(N4CCCCC4)nn3c2=O)cc1 25.1%, CC(C)(C)OC(=O)N1CCC(c2c(C(=O)NCc3ccco3)cnn2-c2ccccc2)CC1 -21.3%, CCOc1ccc(S(=O)(=O)c2cn(Cc3ccccc3)c3ccc(OCC)cc3c2=O)cc1 -17.1%, CCc1ccc(S(=O)(=O)Nc2cccc(-c3ccc(N4CCC(C)CC4)nn3)c2)s1 6.06%, Cc1cc(NC(=O)NCc2ccc3c(c2)CCN3C(=O)c2ccccc2)ccc1Br -15.1%, Cc1cc(=O)n2nc(N3CCC(C(=O)NCc4ccccc4)CC3)sc2n1 -23.2%, Cc1ccc(NC(=O)Cn2cnc3nc4c(cc3c2=O)CCCC4)cc1Cl -12.6%, COc1ccc(C(=O)Nc2ccc(OCc3cc(=O)n4ccsc4n3)cc2)cc1OC -1.4%, Cc1cccc(C(=O)NC(=O)Nc2ccc(-c3cc(C(F)(F)F)nn3-c3ccccc3)cc2)c1 -11.6%, CCn1c(=O)cc(SCC(=O)NCc2ccccc2OC)c2ccccc21 38.3%, COc1ccc2cc(C(=O)NCc3ccc4c(c3)CCN4C(=O)c3ccccc3)[nH]c2c1 -3.04%, O=C(Cn1cc(C(=O)c2ccco2)c2ccccc21)Nc1ccccc1Cl 36.9%, O=C(NCc1cccnc1)C(=O)NCC(c1cccnc1)N1CCN(c2ccccc2F)CC1 (stereo unspecified) 4.44%, CCOC(=O)c1sc2ccccc2c1S(=O)(=O)N1CCN(c2cccc(C)c2C)CC1 -5.94%, CCOC(=O)c1sc2ccccc2c1S(=O)(=O)N1CCN(c2cccc(OC)c2)CC1 -15.5%, Cc1cc(C)c2c(=O)cc(C(=O)Nc3ccc(S(=O)(=O)N(C)Cc4ccccc4)cc3)oc2c1 -5.15%, O=C(C1CCN(S(=O)(=O)c2cccc3nonc23)CC1)N1CCN(c2ccccc2F)CC1 20.1%, Cc1cccc(N2CC(C)Cn3c2nc2c3c(=O)n(CC(=O)O)c(=O)n2C)c1 (stereo unspecified) -1.63%, Cc1ccc(-n2nc(C)c3c(C(=O)NCc4ccc(F)cc4)cc(C)nc32)cc1 -10.2%, O=C(Nc1ccc(F)cc1F)c1cc2c(=O)n3ccccc3nc2s1 15.1%, CCOc1cc(CNC(=O)c2ccc3c(c2)N(C)C(=O)C2CCCCN32)cc(OCC)c1OCC (stereo unspecified) -9.55%, CCc1cccc(NC(=O)CCc2nc3cccnc3n2-c2ccccc2)c1 6.73%, COCCNC(=O)c1cccc(Nc2nc3ccccc3n3nnnc23)c1 9.37%, CSc1ccc(CCNC(=O)c2ccc(CS(=O)(=O)c3ccc(Br)cc3)o2)cc1 12.6%, CCOC(=O)N1CCc2c(sc(NCc3ccc(N(C)C)cc3)c2C(=O)Nc2ccc(OC)cc2)C1 7.63%, COc1ccc(NC(=O)CSc2nc(-c3cccs3)cc(C(F)(F)F)c2C#N)cc1 5.03%, Cc1c(Cl)cccc1N1C(N)=C(C#N)C(c2cc(CN3CCOCC3)cs2)C2=C1CCCC2=O (stereo unspecified) -16.7%, O=c1c2sc3ccccc3c2n(Cc2cccc(C(F)(F)F)c2)c(=O)n1Cc1ccccc1 -8.79%, COc1ccc(NC(=O)CCc2c(C)nc3c(c2C)c(=O)n(C)c(=O)n3C)cc1OC -7.37%, O=C1N(Cc2cccc(C(F)(F)F)c2)c2ccccc2S(=O)(=O)N1c1cccc(Cl)c1 -18.5%, CCN(CC)C(=O)CSc1nc2cc3c(cc2c(=O)n1CCCCCC(=O)NCCc1ccc(OC)c(OC)c1)OCO3 -12.7%, N#Cc1c(C(F)(F)F)cc(-c2cccs2)nc1SCC(=O)Nc1ccc(F)cc1 40.8%, Cc1cc(F)ccc1NC(=O)CN(C)S(=O)(=O)c1ccc(C(=O)N2CCOCC2)s1 -19.2%, COCCNC(=O)CCc1c(C)nc2c(c(C)nn2-c2ccc(C)cc2)c1C -23.9%, CCOc1ccc(NC(=O)c2c(NCc3sccc3C)sc3c2CCCCC3)cc1 -15.2%, COc1ccc(CNC(=O)c2ccc3c(c2)N(Cc2ccccc2F)C(=O)c2ccccc2S3(=O)=O)cc1 -0.45%, CCCN(CCC)c1nc(-c2ccccc2F)nc2ccccc12 47.6%, COc1ccc(OCc2ccc(-c3nc(C#N)c(N4CCN(c5cccc(Cl)c5)CC4)o3)o2)cc1 0.778%, O=C(COc1ccc([N+](=O)[O-])cc1)Nc1cccc2cccnc12 27.7%, CCc1ccccc1NC(=O)CSC1=Nc2ccccc2C2=NC(Cc3ccccc3)C(=O)N12 (stereo unspecified) -19.2%, O=C(CSc1nc2c([nH]c3ccccc32)c(=O)n1-c1ccc(F)cc1)NC1CCCCC1 -29.9%, Cc1ccc(-c2nc3nc(C)cc(C)n3c2Nc2ccc3c(c2)OCCO3)cc1 -20.7%, CC(=O)N1CCc2cc(Br)cc(S(=O)(=O)N3CCC(C)CC3)c21 -2.68%, CC(C)c1cnc2c(c1SCc1cccc(F)c1)c(=O)n(C)c(=O)n2C -34.7%, CC(=O)c1ccc(NC(=O)c2nc(-c3ccccc3)n(-c3ccc(Cl)cc3)n2)cc1 -15.8%, CCOc1ccc(NC(=O)Cn2c(=O)n(Cc3nc(-c4ccccc4)no3)c(=O)c3cc4c(cc32)OCO4)cc1 -10.9%, Cc1nc2nc(NC(=O)C(C)(C)C)[nH]n2c(=O)c1Cc1ccccc1 13.5%, CCOC(=O)c1cc2c(=O)n3ccccc3nc2n(CCOC)c1=NC(=O)C(C)(C)Oc1ccc(Cl)cc1 -29.3%, O=c1[nH]c(=O)n([C@H]2C[C@H](O)[C@@H](CO)O2)cc1C(F)(F)F -55.6%, Cc1ccc(Cn2ccn(CC(=O)Nc3c(C)cc(C)cc3C)c(=O)c2=O)cc1 -0.641%, CCCCN(C)CCCNC(=O)Cn1ncc2c3ccccc3n(Cc3ccccc3F)c2c1=O -6.68%, COc1ccc(NC(=O)Cn2c(=O)oc3cc(S(=O)(=O)NCc4ccccc4)ccc32)c(OC)c1 3.37%, Cc1noc(-c2ccc(N3CCC(C)CC3)c([N+](=O)[O-])c2)n1 6.98%, COc1cc(NC(=O)C2CCN(S(=O)(=O)c3ccc4c(c3)oc(=O)n4C)CC2)cc(OC)c1 22.7%, O=C(CSC1=Nc2ccccc2C2=NC(Cc3ccccc3)C(=O)N12)Nc1ccccc1C(F)(F)F (stereo unspecified) -18.2%, COc1ccc(NS(=O)(=O)c2cc3c(cc2C)NC(=O)CO3)c(OC)c1 -7.27%, Cc1cccc(CNC(=O)c2oc3c(c2C)-c2nn(Cc4cccc(Cl)c4)cc2CC3)c1 -9.27%, Cc1cn2c(=O)cc(COc3ccccc3NC(=O)c3ccc(C(C)(C)C)cc3)nc2s1 20.9%, COC(=O)c1ccc2c(c1)N(CC(=O)Nc1cccc(Cl)c1C)C(=O)c1ccccc1S2 -3.16%, CC(C)NC(=O)Cn1c(=O)nc(-c2ccccc2F)c2cc(Cl)ccc21 -13.3%, CN(C)c1nc(N)c(C(=O)N=C(N)N)nc1Cl -0.54%, CCOc1ccc(CN2C(=O)c3ccccc3Sc3ccc(C(=O)NC)cc32)cc1 6.36%, Cc1ccc(C(c2ccccc2)c2c(C)[nH]c3ccccc23)s1 (stereo unspecified) -5.38%, Cc1ccc2nc(-c3c[nH]c4ccccc34)c(Nc3ccccc3C)n2c1 -8.84%, COc1cccc(NC(=O)Cn2c(=O)n(CC(=O)NCc3ccc(C)cc3)c(=O)c3sccc32)c1 -9.77%, Nc1nnc(SCC(=O)Nc2ccccc2)s1 11.2%, Cc1ccc(/C=C/C(=O)Nc2ccc(S(N)(=O)=O)cc2)o1 12.3%, Cc1cc(C)c(NC(=O)CN2C(=O)c3cccnc3Oc3ccc(C)cc32)c(C)c1 -23.7%, CCN1CCN(C(=O)Cn2ncc3c4ccccc4n(Cc4ccccc4)c3c2=O)CC1 20.7%, Cc1ccc(-c2cc(NC(=O)COc3ccc(Cl)c(C)c3)on2)cc1 9.52%, Cc1nnc(SCC2=C(C(=O)O)N3C(=O)[C@@H](NC(=O)Cn4cnnn4)[C@H]3SC2)s1 3.23%, Cc1cc(C)c(Cn2c3ccccc3c3cnn(CC(=O)NCc4ccccn4)c(=O)c32)c(C)c1 -28.4%, CCOC(=O)c1cccc(NC(=O)c2cn(-c3cccc(OC)c3)c(=O)c3ccccc23)c1 -0.825%, COc1ccccc1CCNC(=O)C(=O)NCC(c1cccs1)S(=O)(=O)c1ccccc1 (stereo unspecified) -2.83%, O=C(CCS(=O)(=O)c1ccc(Br)cc1)Nc1ccc(Cl)c(C(F)(F)F)c1 7.14%, Cc1ccc(Sc2ccc(N3CCC(C(=O)Nc4ccc(C)c(F)c4)CC3)nn2)cc1 25.7%, Cc1cccc(Cn2c(=O)n(Cc3ccccc3)c(=O)c3oc4ccccc4c32)c1 -8.56%, Cc1ccccc1NC(=O)C1CCN(C(=O)c2cnn(-c3ccccc3)c2-n2cccc2)CC1 -18.9%, Fc1cc(F)c2ncc3c(-c4ccccc4)nn(-c4cccc(Cl)c4)c3c2c1 12.5%, CC(C)OCCCNC(=O)C(=O)Nc1ccc2nc3n(c(=O)c2c1)CCCCC3 5.36%, COc1ccc(-c2cc(C(F)(F)F)nc(-n3nc(C(F)(F)F)cc3C)n2)cc1 -9.94%
